Measurements as given in the supplement of paper PMC3334620.
Over roughly 33,000 sequences, “E-score (-0.5 to 0.5)” has its median near -0.056; the highest 2% begin near 0.38. This is one part of the list.

Molecular target: Stb4 (UniProt P50104)
Assay: PBM E-score (8-mer binding enrichment) (E-score (-0.5 to 0.5)); higher = stronger / more preferred TF binding; most listed sequences are background and not binding sites
Settings: protein concentration: 200 nM; construct: GST-DNA-binding domain
Summary of the method: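 GST-tagged yeast TFs (full-length or DNA-binding domain) were made by PURExpress in vitro transcription/translation and applied at about 100-200 nM to universal all-10-mer Agilent arrays. The arrays were made double-stranded by primer extension, on fresh or once-stripped slides. Bound protein was detected with fluorescent anti-GST, and scans were normalised with masliner. Each ungapped eight-base word, pooled with its reverse complement, received an E-score (modified Wilcoxon-Mann-Whitney statistic) from the Universal PBM Analysis Suite.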

Sequence | PBM E-score
GGTGATAA | -0.00017
CGAGGGGA | 0.193
CGTTAATC | 0.0955
ATCCCCCG | 0.239
CTAAACAA | -0.144
ACCAACCT | -0.017
ACGTTACT | -0.00929
TCAAAGCA | -0.0262
AACACAAA | -0.079
CATTGTCG | -0.0389
ACAGTCAA | -0.196
GCGAGCTA | -0.0842
AGAGTAAA | -0.14
GGACGCAA | 0.0215
ATAGTAAC | -0.0231
ATGCGTCC | -0.0349
CACAGGAG | -0.128
CTCGAACC | -0.123
CTGTGTGC | -0.158
CGCTACGA | 0.0233
CGTGCCCC | -0.111
TAACAGTA | -0.317
ATATACAT | -0.0461
CCTCCAGC | -0.218
GAAACTAC | 0.0124

Sequence | PBM E-score
CTTGTTCC | 0.181
CATTGTAG | -0.187
ACGACCTC | 0.0549
AGGTATTG | -0.221
GAACACTA | -0.0188
ATTGTTTA | -0.117
CAGGCTAG | -0.357
ACGCACGA | -0.196
ATAGTTCG | 0.0551
CTGTGAAA | -0.0816
AAATTCCT | -0.0146
CGTGTCAG | 0.0424
ATCGTCTG | -0.192
CCCGCGGG | 0.301
GGACCGTA | 0.0674
ACGTGCCA | -0.225
GCACAGAA | -0.107
CCGGAGTA | 0.362
CATACCAA | -0.135
CTGCGTTC | -0.129
AGACGATC | -0.339
ACTGGGAC | -0.191
AACAACGT | -0.113
GCACAGCA | -0.0896
ACCGAGTC | 0.244

Sequence | PBM E-score
ACCGACAG | 0.218
ACTATATA | -0.0478
CCCGACCC | 0.353
CTGATAAA | -0.0917
GATAGCCA | -0.119
AGGCCCAG | -0.228
CATGCTAC | -0.211
GGCGGCCA | -0.146
TATACTAA | -0.149
ATTTACGC | -0.0126
ATATTCGG | 0.399
AGTTGAGA | -0.116
GCTTGCTA | -0.0867
AAGTTTCA | -0.0705
CGCACACA | -0.163
GGCGCCAA | -0.16
CGTCAGTC | 0.0557
ATAATCAC | -0.0304
TTACAAAA | -0.0358
GGCCCAGA | -0.129
AAGCCGAT | 0.299
CCGTGCTC | 0.248
CCTCGTCC | -0.106
ATATGTTC | 0.138
GGTATGAC | 0.0721

Sequence | PBM E-score
CCTCTGAA | -0.00793
AGGTCATA | -0.21
ACATAAAT | -0.06
CAGTCGAG | -0.215
GGACTAAC | -0.0138
AAAGAATG | -0.0925
AACCTCCT | -0.187
GACCTGGA | -0.196
AGCCTAAC | -0.122
AGTGGCCC | -0.0336
CAATCCGA | 0.403
GCCCCACC | 0.13
CCCCGGGA | 0.307
AGAAGATC | 0.119
AAACCACC | 0.0162
CCTGCGGC | -0.0384
ACTACCCA | -0.261
AGCAACAT | -0.132
CCGAGCTC | 0.435
CCAGTGCA | -0.303
CCTTCTTA | -0.143
GGCAGCCA | -0.125
ATAAGATC | -0.141
CACAACCG | 0.203
CAGATCCC | 0.00572

Sequence | PBM E-score
CTACTTGA | -0.164
ATGTGGAC | -0.164
ATGGACGA | -0.00649
GCTCTAGA | -0.123
ACCAAAAC | -0.146
TAACACTA | -0.149
ACCGGGAG | 0.251
ATGTCTCC | 0.133
AGGACCGG | 0.138
GGACCGGA | 0.346
CGTGAAGA | -0.0749
CTGGACGC | -0.278
GAATATCA | 0.102
CGCCAAAA | 0.0493
ACTTCGAC | -0.0532
CATGCTGG | -0.347
ATCCAAGA | 0.00699
CTCTGATC | -0.162
GTGGAATA | 0.0247
ACTCCGCG | 0.214
GACGAGCA | -0.146
ACGACAGA | -0.291
TGAGATAA | 0.0542
TCGACCAA | -0.31
GTGGCGTA | -0.0497

Sequence | PBM E-score
TATTCCAA | -0.113
CTGTTACC | -0.0187
GCGTAGAC | -0.209
ATGTTGTG | -0.143
ACCGGCGC | 0.11
ACCGCCAA | -0.106
AGGAACTG | -0.148
CATTCTTA | -0.0548
ACATTCCG | 0.365
GACGGCGA | -0.0984
AACGAAGT | -0.352
AAGCGAAA | -0.0461
ACCGTGGC | -0.171
ATGATGAC | -0.113
AATCAAAG | -0.147
CAGGGCTA | -0.198
AACACATG | -0.303
CTCAGCAA | -0.138
AATTAAAG | 0.00931
AGTCTATA | -0.333
CCACTGTC | -0.147
AGTTAAAG | -0.175
TGCTAGCA | 0.0512
GCACACTA | -0.0748
CGCTTCTA | -0.253

Sequence | PBM E-score
CCCGAAGG | 0.394
GCGTTTAA | -0.0915
CCGCCTTC | 0.0653
AAGTGCGA | -0.0645
CCAGGAAA | -0.0736
AGAACGCG | 0.0553
CGCGCGAA | 0.0365
ACCATCTG | -0.188
CCTTCCTA | -0.354
ACGCACCT | -0.166
AATATGGA | -0.314
CACCCCGC | 0.167
ATACAGCC | 0.00135
ATTGAGGC | 0.0815
CATGGTTC | 0.0335
CTTGTGAC | -0.0244
CCATACCA | -0.062
ATGGACCG | 0.0897
CAGGTTCC | 0.0543
AGCTCAGA | -0.103
ACTTGGCC | -0.114
GGTCTTAC | -0.136
AACTGGAA | -0.0984
CGCCTTCA | -0.177
CCGCTTGC | 0.11

Sequence | PBM E-score
CATCAATC | -0.0724
AGTGTGTG | -0.228
GAGGAACC | -0.0303
CGGGCAGA | 0.244
CACTCAAA | -0.164
GAACAACA | 0.0207
AGAAGACG | 0.00073
CTTTCTAC | -0.106
CAGTGCGG | 0.0813
CTAAACTC | -0.0373
TCATTACA | -0.165
ATTACATA | -0.276
AGATTACT | -0.167
GCGGTGTA | -0.00948
AGATACCT | -0.223
CTAGAAAG | -0.188
TGAATGAA | -0.00752
CGACTTTA | -0.00194
ATATCAGC | -0.0309
GGGCAATA | 0.0595
AACGTGTA | -0.15
AAAGACGG | 0.109
CCAATGCA | -0.246
AGAGAAAC | -0.179
AGAACCCC | 0.0873

Sequence | PBM E-score
TAACGTCA | -0.165
CTGGGGCA | -0.3
GTAAACGA | 0.0686
GCGAGAAA | -0.00939
AACCGGCC | 0.218
GTGACTGA | -0.164
AAGGCGCA | -0.155
CCACCTCG | 0.124
AAAAGTAA | -0.0834
ACTGCCTA | -0.32
ACATCCAG | -0.261
AGGTGAAT | 0.0258
CGATAGCC | 0.163
CCGAAAGG | 0.363
CACGACGG | 0.0117
CCTGTTCG | 0.0877
AACTTCAT | -0.124
GGGATTCA | 0.103
TGTATGAA | 0.072
CTCGTATA | -0.107
GAGGGGCA | 0.00312
GGAAGGTA | 0.104
GAGTAACC | 0.134
CAATGAGG | -0.26
AGTGCTAT | -0.192

Sequence | PBM E-score
CAATAGGC | -0.0832
CTGTATGC | -0.0901
GGGGGGAA | -0.0796
GAAAGATC | 0.036
ACAAGATA | -0.175
CGCCAACG | -0.0712
AGCCCCCG | 0.155
GGACGGAA | 0.328
GGTTGCCA | 0.0839
GCAGCGAC | -0.0881
ATGACTAC | -0.24
CTAAGCGA | 0.147
GCGCAGCA | -0.15
GCTCCTAC | -0.092
CCAGTAAG | -0.167
AGCTAGGC | -0.164
ACGTCCCA | -0.315
CATGTCGC | -0.071
GGTACGGA | 0.289
AGGGTAGA | -0.166
ACTGCGAA | -0.251
ACGCTTTG | 0.035
GCTATCCC | 0.0192
AGCGTAAG | -0.0254
AAGCAAAT | -0.2

Sequence | PBM E-score
AGGACCAG | -0.148
ATCACGAG | -0.175
CAGCCTAG | -0.0857
ATCGTTGC | -0.0155
ATTGAACG | -0.152
CTGGTAAA | -0.12
ACTGGCGC | -0.175
CCCTTCTA | -0.209
CGCGGACG | 0.162
GGCACAGA | 0.121
AGCCGCCT | 0.0445
ACTCTGAT | -0.116
ACATCACA | -0.0991
AACTACTA | -0.0423
GCGTCAGA | -0.194
GCCGATTA | 0.267
ATTGCCCC | -0.12
CCAGGCCC | -0.0986
CCTACTAC | -0.0728
TCAATCGA | -0.15
ATCCCAAA | 0.0397
AGAAACAG | -0.141
CAGAGTGG | -0.288
GATTACCA | 0.0702
AAAGTAGT | -0.179

Sequence | PBM E-score
CATTAGGG | -0.255
AGACGCCT | -0.179
ACGTAGTG | -0.13
CTAATATA | -0.148
AAGACGCC | -0.109
AGGCCAGG | -0.0735
ATCAAAAG | 0.024
TAACTGGA | -0.125
GCCGTGCA | -0.0831
GGCCTACC | 0.0786
ATGAGTAC | -0.102
CCTAGGTC | -0.139
CCTCGTAC | -0.0299
AACTTTTA | -0.087
CTGTCAAG | -0.148
CCTCAAAA | -0.123
GCTTTACC | 0.157
CTGACAAG | -0.194
GGAACCCC | 0.00388
GCCTGAAA | 0.0653
GCGCACCC | 0.167
ACACACGG | 0.157
AACCGACC | 0.271
GAATAACC | 0.053
ATGCTGAG | -0.229

Sequence | PBM E-score
CAACGCAG | -0.0853
GTAGCCGA | 0.4
CACCTGCA | -0.202
ACAGACGC | -0.0352
ACCCTTTC | -0.0625
GAACGTGA | -0.031
GCCTCGTA | -0.0917
CATGCTAA | -0.248
GACGCTCC | 0.0698
GGGCGCCC | 0.0969
CGTCGGAG | 0.275
CTAATGCA | -0.254
ATAAACCG | 0.178
CACGTCTC | 0.145
CAGATATC | -0.109
ACGGTGCC | 0.0903
ACAAAGTC | -0.145
AGTGTCAA | -0.00351
ACTAGACT | -0.0653
CCCGCACG | 0.142
ACCTAGGT | -0.138
AGTGAAAA | 0.128
CCGCTGAC | 0.0389
GAATCACC | -0.118
GTATCGCA | -0.0906

Sequence | PBM E-score
CGGGACCG | 0.353
ACTGGTCT | 0.116
CGCAGTTA | 0.0787
AATAAGCC | 0.00782
CCGCCTGA | 0.0156
ATGAGCAT | -0.0464
CAGGTTTA | 0.0854
AGCGATGA | -0.0654
ATGAGAAA | -0.205
TAAGACGA | -0.263
CTGTAATC | -0.184
AGAGATCA | -0.261
ATCGAAAT | -0.0429
ACGGAACT | 0.35
CAAGTTCG | 0.0949
ATCGACTA | -0.21
CAAGATGA | -0.37
ACCCAAGG | 0.0231
TAACGGGA | 0.236
